# Reference: PubChem BioAssay AID1476 (National Center for Advancing Translational Sciences (NCATS), 2009)
# About 4,500 (2.2%) of roughly 200,000 compounds were called active. The inconclusive results got no clear call from the source; some entries with a clear call stand among them for comparison. Calls come from the whole dose curve; as a rule, active = well fitted inhibition curve with a large enough effect; inconclusive = small, poorly fitted or top-dose-only effect, or effect the other way; inactive = flat fitted curve, though single readings scatter. Where the call is inconclusive, the potency comes from a doubtful curve fit.
# Target: Cruzipain (Trypanosoma cruzi) (UniProt P25779)
# Chain of UniProt P25779 (P25779 whole entry, looked up): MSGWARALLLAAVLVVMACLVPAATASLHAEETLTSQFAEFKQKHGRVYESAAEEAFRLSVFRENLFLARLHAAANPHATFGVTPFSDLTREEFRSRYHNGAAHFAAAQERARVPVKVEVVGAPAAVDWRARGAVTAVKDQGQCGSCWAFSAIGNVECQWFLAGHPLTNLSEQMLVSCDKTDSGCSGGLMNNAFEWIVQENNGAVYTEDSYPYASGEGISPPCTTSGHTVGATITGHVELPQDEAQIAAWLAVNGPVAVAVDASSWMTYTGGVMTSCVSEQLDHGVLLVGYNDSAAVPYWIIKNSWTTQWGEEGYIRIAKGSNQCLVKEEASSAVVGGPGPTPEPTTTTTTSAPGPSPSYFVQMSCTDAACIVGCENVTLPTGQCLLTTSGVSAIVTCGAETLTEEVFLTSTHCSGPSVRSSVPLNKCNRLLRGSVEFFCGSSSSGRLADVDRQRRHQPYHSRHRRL
# Assay: qHTS Assay for Promiscuous and Specific Inhibitors of Cruzain (without detergent); note: nearly all actives have a fitted effect of over 40% in size;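 for max response, negative = inhibition: plate controls were enzyme without inhibitor for no effect and buffer without enzyme for full effect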
# Settings: purified cruzain, Z-FR-AMC fluorescence, no detergent
# Method in brief: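 Purified cruzain at 1.5 nM, pre-incubated 15 min with compound at room temperature in 100 mM sodium acetate pH 5.5, 5 mM DTT, 0.00005% Triton X-100. Reaction started with 2 uM Z-FR-AMC; AMC fluorescence increase over 60 s gives rate.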
# Potency is the fitted concentration of half-maximal effect; tags give direction and shape of the fitted curve.
Compound,Potency,"max response, negative = inhibition"
COc1ccc(NC(C)C(=O)N/N=C/c2ccccc2OCc2cccc(Br)c2)cc1 (configuration not stated),"inconclusive: 31.6 µM [inhibitor, single point]",–
C=C(C)C(=O)OCCCCCCCCCC,–,inactive: -9.49%
COc1cccc(/C=N/NC(=O)c2cc3c(OC)cccc3[nH]2)c1O,"inconclusive: 25.1 µM [inhibitor, single point]",–
COCCN1CCc2nc(SCC(=O)Nc3ccc(Br)cc3)[nH]c(=O)c2C1,–,inactive: -8.4%
CCOCCCNC(=O)c1cc2c(-c3ccc(OC)c(OC)c3)nn(C)c2s1,"inconclusive: 39.8 µM [activator, single point]",–
COC(=O)N/N=C\c1ccc(-c2cc(Cl)c(Cl)cc2Cl)o1,"inconclusive: 39.8 µM [inhibitor, single point]",–
CCC(=O)Nc1cccc(-c2nnc(-c3cccc(NC(=O)CC)c3)o2)c1,"inconclusive: 39.8 µM [activator, single point]",–
CCOc1ccccc1N(CC(=O)N1CCOCC1)S(=O)(=O)c1ccc(SC)cc1,"inconclusive: 39.8 µM [activator, single point]",–
CCOC(=O)/C(C#N)=C/c1ccc(OC(=O)c2ccco2)c(OCC)c1,"inconclusive: 39.8 µM [activator, single point]",–
Cc1c(NC(=O)CSc2nnc(C(C)Oc3ccc(Cl)cc3)n2-c2ccccc2)c(=O)n(-c2ccccc2)n1C (configuration not stated),"inconclusive: 31.6 µM [activator, single point]",–
O=c1c(-c2ccc(Cl)cc2)[n+]([O-])c2ccccc2n1O,"inconclusive: 39.8 µM [inhibitor, single point]",–
CN(C)c1oc(/C=C/c2ccc(F)cc2)nc1C#N,"inconclusive: 6.31 µM [activator, single point]",–
O=C(Nc1ccc(N2CCCC2)cc1)c1ccc(Br)o1,active: 7.94 µM,–
O=C1OC(/C=C/c2ccccc2)=NC/1=C/C=C/c1ccccc1,"inconclusive: 20 µM [inhibitor, partial curve, poor fit]",–
COc1ccccc1Cn1ccn(Cc2c(F)cccc2Cl)c(=O)c1=O,"inconclusive: 39.8 µM [activator, single point]",–
CCCCn1c(NC(=S)Nc2ccccc2)nc2ccccc21,"inconclusive: 15.8 µM [inhibitor, partial curve, poor fit]",–
CCN(CC)C(=O)c1sc(NC(=O)C(C)Sc2nc(-c3ccccc3)cc(C(F)(F)F)n2)c(C(=O)OC)c1C (configuration not stated),"inconclusive: 20 µM [activator, single point]",–
COC(=O)c1ccc(/C=C2\N=C(SC)SC2=O)cc1,"inconclusive: 31.6 µM [inhibitor, single point]",–
COc1ccccc1/C=C/C(=O)c1ccc(Cl)cc1,–,inactive: 10.6%
CCc1ccc(-c2cc(C(=O)Nc3c(C)n(C)n(-c4ccccc4)c3=O)c3ccccc3n2)s1,"inconclusive: 39.8 µM [activator, single point]",–
O=C(CSc1nc(-c2ccccc2)cs1)Nc1nccs1,active: 25.1 µM,–

Compound,Potency,"max response, negative = inhibition"
Cc1c(Cl)cccc1NC(=O)Cn1c(=O)nc(-c2ccccc2)c2ccccc21,–,inactive: -6.1%
Cc1oc(C)c2c(=O)cc(-c3ccc4c(c3)OCO4)cc(OC(=O)c3ccccc3Cl)c12,–,inactive: -4.31%
O=C(Nc1ccc(Cl)cc1)c1cc2nc(-c3ccco3)cc(C(F)(F)F)n2n1,"inconclusive: 12.6 µM [activator, partial curve]",–
Cc1c(/C=N/NC(=O)COc2ccccc2[N+](=O)[O-])c2ccccc2n1C,"inconclusive: 25.1 µM [activator, partial curve]",–
CC(C)CNc1nc(Oc2ccc(OCC(N)=O)nn2)nc(N2CCOCC2)n1,–,inactive: -0.633%
Cc1ccc(S(=O)(=O)N(C(=O)c2ccncc2)c2ccc(OC(=O)c3ccncc3)c3ccccc23)c(C)c1,"inconclusive: 31.6 µM [activator, single point]",–
CCOC(=O)c1cc(-c2ccccc2)n(CCC(=O)Nc2ccc(Cl)c(C(F)(F)F)c2)c1C,–,inactive: -21.8%
COc1ccc(CNc2ncncc2-c2ccc(C(=O)N(C)C)cc2)c(OC)c1,–,inactive: -1.49%
Cc1nn(C)c2c1c(C(F)(F)F)cc(=O)n2Cc1cccc(Br)c1,–,inactive: -14.1%
COc1cc(O)c2c(=O)c(O)c(-c3ccc(O)c(O)c3)oc2c1,"inconclusive: 39.8 µM [inhibitor, single point]",–
O=C(/C=C/c1ccccn1)c1ccc(Br)cc1O,"inconclusive: 39.8 µM [inhibitor, single point]",–
COc1ccccc1CNC(=O)c1ccc2nc(-c3ccccc3)c(-c3ccccc3)nc2c1,–,inactive: -13.2%
CCOc1ccc(CNC(=O)c2ccc(NC(=O)N3CCCCc4ccccc43)cc2)cc1OC,–,inactive: 0.231%
CCn1cc(C(=O)NCc2ccc(C)cc2)c(=O)c2cc(S(=O)(=O)N3CCCCCC3)ccc21,"inconclusive: 6.31 µM [activator, single point]",–
O=S(=O)(Nc1nc2n(n1)C(c1ccc(F)cc1)C=C(c1ccccc1)N2)c1ccc(Cl)cc1 (configuration not stated),"inconclusive: 39.8 µM [activator, single point]",–
NC(=O)C1CCN(C(=O)CN2CCc3ccccc32)CC1,"inconclusive: 31.6 µM [activator, single point]",–
COc1ccc(NC(=O)Cc2c(C)n(C(=O)c3ccc(Cl)cc3)c3ccc(OC)cc23)cc1,"inconclusive: 25.1 µM [inhibitor, single point]",–
CC1CN(c2oc(Cc3cccc4ccccc34)nc2C#N)CC(C)O1 (configuration not stated),"inconclusive: 39.8 µM [activator, single point]",–
Cc1ccc2onc(CC(=O)N(C)c3ccccc3)c2c1,–,inactive: -19.9%
COc1ccc(CCNC(=O)c2c(C)nn(-c3ccc(F)cc3)c2-n2cccc2)cc1OC,"inconclusive: 39.8 µM [activator, single point]",–
Cc1ccc(NC(=O)/C(=C\C=C\c2ccccc2)NC(=O)c2ccccc2)cc1,"inconclusive: 39.8 µM [inhibitor, single point]",–
